From PubChem BioAssay AID1159614 (National Center for Advancing Translational Sciences (NCATS), 2016)
Among all 45,000 compounds or so, about 65 (0.1%) were called active. Calls follow the shape of the dose curve; as a rule, active = well fitted activation curve with a large enough effect; inconclusive = small, poorly fitted or top-dose-only effect; inactive = no such curve, though single readings can be large or run the other way. This is one part of the list.

What follows are compounds tested against Galactocerebrosidase (Homo sapiens) (UniProt P54803) (assay: A Novel Cell-Based Assay to Identify Small Molecules for B -Galactocerebrosidase). Settings: 145M-Twi-hGALC-G270D cells (Twitcher mouse brain line with human GALC G270D), HMU-beta-Gal fluorescence, 48 h; series mostly up to 57.5 µM; activation: at the top concentration.
Method in brief: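 Fluorogenic HMU-b-Gal hydrolysis (0.1 mM final, pH 5.2 citrate-phosphate with 1 mg/mL sodium taurocholate; carbonate stop buffer) measures mutant GALC activity after compound treatment of live 145M-Twi Twitcher brain cells stably carrying human GALC-G270D, with wild-type GALC line alongside; activation sought.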
Also: 0% is about no effect; nearly all actives have a fitted effect of over 65% in size.

UniProt P54803, sequence (P54803 whole entry, looked up): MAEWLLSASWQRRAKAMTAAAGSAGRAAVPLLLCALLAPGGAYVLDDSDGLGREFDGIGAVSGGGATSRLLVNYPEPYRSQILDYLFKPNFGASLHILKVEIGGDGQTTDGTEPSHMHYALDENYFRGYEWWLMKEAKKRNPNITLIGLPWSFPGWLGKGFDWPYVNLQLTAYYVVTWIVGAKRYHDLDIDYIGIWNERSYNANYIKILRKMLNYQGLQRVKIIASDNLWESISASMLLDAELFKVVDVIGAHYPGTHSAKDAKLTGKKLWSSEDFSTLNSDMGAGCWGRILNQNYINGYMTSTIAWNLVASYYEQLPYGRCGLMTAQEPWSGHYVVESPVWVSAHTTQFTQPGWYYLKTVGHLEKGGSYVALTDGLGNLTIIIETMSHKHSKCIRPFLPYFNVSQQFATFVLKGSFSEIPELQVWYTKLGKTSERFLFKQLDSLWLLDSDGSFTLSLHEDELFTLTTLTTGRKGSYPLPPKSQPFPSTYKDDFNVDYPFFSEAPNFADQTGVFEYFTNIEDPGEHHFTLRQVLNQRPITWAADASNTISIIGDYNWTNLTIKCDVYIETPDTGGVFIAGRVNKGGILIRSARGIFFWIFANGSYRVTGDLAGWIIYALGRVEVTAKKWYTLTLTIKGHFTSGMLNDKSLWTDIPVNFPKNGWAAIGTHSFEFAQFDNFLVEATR

activation, inactive:
Cc1nn(CCCC(=O)Nc2ccccc2C(F)(F)F)c(=O)c2nn(-c3ccccc3)c(C)c12 -8.28%
Cc1ccc(Cl)cc1N1CCN(C(=O)c2ccc3c(Cl)c4c(nc3c2)CCCC4)CC1 -20.4%
O=C(Cn1c(=O)ccc2cc(S(=O)(=O)N3CCCC3)ccc21)Nc1ccccc1 -20.7%
COc1cccc(-c2nc(CS(=O)(=O)CC(=O)N3CCN(c4ccccc4)CC3)c(C)o2)c1 -11.8%
CCC(=O)N1c2ccccc2CC1C(=O)NCCCN1CCN(c2ccc(OC)cc2)CC1 (stereo not given) -18.9%
CCn1cc(C(=O)NCCC(C)C)c(=O)c2cc(S(=O)(=O)N(C)C3CCCCC3)ccc21 -12.6%
CCCCOc1ccc(CNC(=O)c2cnc3sc(N4CCCC4)nn3c2=O)cc1 -7.97%
Cc1c(Cl)cccc1NC(=O)C(=O)NCCc1csc2nc(-c3ccccc3F)nn12 -22.5%
O=C(Cn1c(-c2cccs2)cc2cc(F)ccc21)NCCc1ccc(Cl)cc1 -9.26%
O=S(=O)(Nc1ccc(O)c(Sc2nc3ccccc3s2)c1)c1cc(Cl)ccc1Cl -32.2%
CC1CCCCN1c1cc2c(cc1F)c(=O)c(S(=O)(=O)c1ccccc1)cn2Cc1ccccc1 (stereo not given) -7.57%
COc1ccc(-c2nc(CNC(=O)Nc3ccccc3)c(C)o2)c(OC)c1 -9.93%
CCN1CCN(CCCNC(=O)Cn2c(-c3cccs3)cc3cc(Cl)ccc32)CC1 -6.75%
O=c1ccc(-c2ccccc2)nn1Cc1c(F)cccc1Cl -8.05%
CCn1ccc2c(OCC(=O)Nc3ccc(OC)cc3OC)cccc2c1=O 7.94%
CCc1ccc(NC(=O)C(=O)NCC(c2ccc3c(c2)OCO3)N2CCN(C)CC2)cc1 (stereo not given) -12.1%
COc1ccc(Nc2ncc(C(=O)Nc3cccc(Cl)c3)c3ccccc23)cc1 -8.84%
Cc1ccc(OCC(=O)NCC2(N3CCN(C)CC3)CCCCC2)cc1 -10.6%
Cc1ccc(C)c(NC(=O)c2cc(S(=O)(=O)NCc3ccccc3)ccc2F)c1 -15.1%
CCN(CC)S(=O)(=O)c1ccc2c(c1)nc(CN(C)C(=O)Nc1ccc(C)c(Cl)c1)n2C -15.7%
Cc1nc2c3cccnc3nn2c(C)c1CCC(=O)NCc1ccccc1 -9.34%
COc1ccccc1Nc1nc(C)nc(N)c1S(=O)(=O)c1ccccc1 -7.41%
CC(C)CCNC(=O)c1cnc2sc(N3CCCCCC3)nn2c1=O -9.35%
COc1ccc(-n2nc3c(N4CCC(C(=O)N5CCC(C)CC5)CC4)nnc(C)c3c2C)cc1 -9.4%
Cc1ccc(O)c(NC(=O)c2cc(-c3ccc(F)cc3)no2)c1 -4.86%
COc1ccc(CNC(=O)c2ccc(Cn3c(=O)c4cccn4c4cccnc43)cc2)c(OC)c1 -2.98%
CCc1ccc(C2CC(=O)Nc3c2c(=O)n(C)c2ncnn32)cc1 (stereo not given) 15.2%
CC(C)n1nc(-c2cc3cc(O)ccc3[nH]2)c2c(N)ncnc21 -18%
CC(C)Oc1ccc(CNC(=O)C2=Cc3ccccc3OC2)cc1 -8.18%
COc1ccc(C(=O)c2cn(CC(=O)Nc3cc(C)ccc3C)c3nc(C)ccc3c2=O)cc1 -13.1%
CCOCCCN(Cc1ccco1)C(=O)c1cc2c(s1)-c1c(C)cccc1OC2 -9.2%
COc1ccc(OC)c(NC(=O)c2nc(S(=O)(=O)Cc3ccc(F)cc3)ncc2Cl)c1 -14.8%
CCOC(=O)N[C@H](Cc1c[nH]c2ccccc12)C(=O)Nc1cccc(Cl)c1 -9.37%
CCn1c(CN2CCN(C)CC2)nc2cc(NC(=O)c3ccc([N+](=O)[O-])cc3)ccc21 -13.8%
NC(=O)C1CCN(c2csc3ccc(F)cc3c2=O)CC1 -11.8%
COc1ccc(N2CCN(C(CNC(=O)c3ccc(OC)c(OC)c3)c3cccnc3)CC2)cc1 (stereo not given) -7.42%
Cc1ccc(NC(=O)CN(Cc2ccccc2)S(=O)(=O)c2ccc3nc(C)sc3c2)c(C)c1 -17.3%
Cc1ccc(-c2nc(CSc3nnc(C)n4c3cc3occc34)c(C)o2)cc1 -7.99%
CCCCSc1nnc2c(n1)OC(c1ccc(Br)s1)Nc1ccccc1-2 (stereo not given) -10.7%
COc1ccc2cc1Oc1cc3c(cc1OC)CC[N+](C)(C)[C@H]3Cc1ccc(cc1)Oc1c(OC)c(OC)cc3c1[C@@H](C2)[N+](C)(C)CC3 -15.8%
O=S(=O)(NCCc1nnc2ccc(SCc3ccccc3Cl)nn12)c1ccccc1 -3.01%
CCOc1ccc(-c2nc(-c3ccccc3)c(-c3ccccc3)[nH]2)cc1OCC 3.52%
COc1cc2nc(Nc3cccc(F)c3)nc(N)c2cc1OC -8.24%
Cc1cccc2nc(-c3ccccn3)c(Nc3ccccc3)n12 -13.3%
CC(C)Cn1cc(NC(=O)N2CCN(c3cccc(C(F)(F)F)c3)CC2)c2ccccc2c1=O -22.6%
CCCCOC(=O)c1ccc(-n2nnc3c(sc4nc(C)cc(C)c43)c2=O)cc1 -6.7%
CN(C)c1ccc(CNC(=O)CCCN2C(=O)c3cccnc3Oc3ccc(Cl)cc32)cc1 -9.33%
N#Cc1ccccc1CSc1nnc(-c2ccc(Br)cc2)o1 -7.11%
O=C1CSC2(C(=O)N(Cc3cccc(C(F)(F)F)c3)c3ccccc32)N1c1ccc(F)c(F)c1 (stereo not given) -22.3%
Cc1ccc(CNC(=O)Cn2ccn(-c3cccc(Cl)c3)c(=O)c2=O)cc1 -7.87%
O=C(NCc1ccccc1Cl)c1nnc(Cc2cccc(F)c2)o1 -9.26%
Cc1ccc2oc(-c3ccc(C)c(NC(=O)/C=C/c4ccco4)c3)nc2c1 -4.02%
Cc1ccc2c(CC(=O)N(Cc3ccc(N(C)C)cc3)Cc3ccco3)coc2c1C -7.52%
COc1cccc(-c2cc(C(F)(F)F)n3ncc(C(=O)OC(C)C)c3n2)c1 -5.01%
NC(=O)N1c2ccccc2C=Cc2ccccc21 -4.72%
Cc1ccc(-c2noc(CNC(=O)c3ccc(C)c(Cl)c3)n2)cc1 -8.65%
CCc1ccc(OCC(=O)N(Cc2ccc(C(C)C)cc2)C2CCS(=O)(=O)C2)cc1 (stereo not given) -8.08%
CCN(CC)C(=O)C1=C(C)Nc2nc3ccccc3n2C1c1cccc(OC)c1 (stereo not given) -4.33%
O=C(Nc1ccccc1C(F)(F)F)c1ccc(F)c(S(=O)(=O)N2CCc3ccccc3C2)c1 -18.9%
Cc1ccc(-n2c(C)cc(/C=C(\C#N)C(=O)Nc3ccc(C)c(C)c3)c2C)cc1 0.699%
Cc1c(Cl)cccc1NC(=O)C(=O)NCCc1csc(-c2ccc(C(F)(F)F)cc2)n1 -19.2%
Cc1ccccc1Cn1c(CN2CCC(C(=O)NCc3ccc(Cl)cc3)CC2)cc2ccccc21 -15.1%
O=S1(=O)c2ccccc2N(Cc2ccccc2F)c2ccccc21 -10.4%
CCCCN(C)C(=O)c1ccc2c(=O)n3nc(Nc4cc(C)ccc4C)sc3nc2c1 -8.57%
O=C(CNC(=O)c1ccc(F)cc1)OCc1cc(=O)n2ccsc2n1 -0.848%
CCN1CCc2c(sc(NC(=O)c3ccc(S(=O)(=O)N4CCCC(C)C4)cc3)c2C(=O)OC)C1 (stereo not given) -24%
COc1ccc(C(=O)Nc2ccc3oc(-c4cccc5c(Br)cccc45)nc3c2)cc1 -23.6%
CCOc1ccc(NS(=O)(=O)c2ccc3c(c2)NC(=O)CCS3)cc1 -11.1%
COc1ccc(CCNC(=O)c2ccc(-n3c(C)cc4c3CCC(C)C4)cc2)cc1OC (stereo not given) -11%
Cc1cc(C)cc(NC(=O)COc2cccc3c(=O)n(C)ccc23)c1 -6.66%
O=C(NCc1ccc2c(c1)OCO2)c1ccc2c(c1)N(Cc1c(F)cccc1Cl)C(=O)c1ccccc1S2 -19%
Cc1cc(C)c(OCC(=O)N(Cc2ccc(N(C)C)cc2)Cc2ccco2)c(C)c1 -6.99%
CC1=C(C(=O)OC2CCCC2)C(c2c(F)cccc2Cl)CC(=O)N1 (stereo not given) -7.32%
Cc1ccc(-c2cn3nc(N4CCCC(C(=O)NCc5ccccc5F)C4)sc3n2)cc1 (stereo not given) -1.75%
COc1ccc(-n2c(-c3cccc(F)c3)nc3c(cnn3-c3ccc(C)cc3)c2=O)cc1 -9.65%
Cc1ccc(-c2csc(-c3c(N)c(C(=O)c4ccc5c(c4)OCO5)n4ccccc34)n2)cc1 -19.6%
Cc1ccc(Cn2nc3n(c2=O)-c2cc(Cl)ccc2OC3)cc1 -9.65%
COC(=O)c1ccccc1NC(=O)Cn1c(=O)n(CCC(=O)NCc2ccc3c(c2)OCO3)c(=O)c2ccccc21 -10.9%
COc1ccc(C(=O)c2cn(CC(=O)Nc3cc(OC)cc(OC)c3)c3ccc(OC)cc3c2=O)cc1 -28.3%
COc1ccc(-c2nc3ccccc3o2)cc1NC(=O)Cc1ccc(Cl)cc1 -28.2%
Cc1cccc(N(C)C(=O)Cn2c(=O)oc3cc(S(=O)(=O)N4CCCCC4)ccc32)c1 -6.81%
Cn1ccnc1SCC(=O)Nc1cccc(Br)c1 -21.3%
CCOC(=O)c1c(S(=O)(=O)N2CCC(C(=O)NCc3cccc(OC)c3)CC2)c(C)n(C)c1C -16.5%
COc1ccc(N2CC(NC(=O)C3CCCCC3)CC2=O)cc1 (stereo not given) -13%
Clc1ccc(C(Cn2ccnc2)OCc2c(Cl)cccc2Cl)c(Cl)c1 (stereo not given) -8.23%
CCn1c(SCC(=O)Nc2cc(C)ccc2F)nnc1-c1ccccc1O -11.5%
CCN(c1ccc(OC)cc1)S(=O)(=O)c1ccc2[nH]c3c(c2c1)CCCCC3 -30.2%
COC(=O)c1ccc(NC(=O)Cn2c(=O)oc3ccccc32)cc1 -3.98%
NC(=O)c1cc(S(=O)(=O)NCc2cccc(Br)c2)cs1 -0.0471%
COc1ccc(C2CC(=O)c3cc(-c4nc(-c5cccc([N+](=O)[O-])c5)cs4)c(=O)n(-c4ccccc4N)c3C2)cc1 (stereo not given) -6.01%
Cc1ccc(CNC(=O)c2ccc3c(c2)CCN3S(=O)(=O)c2ccc(Br)cc2)cc1 -8.17%
COc1ccccc1CNC(=O)c1ccc(N2CCCC2)c(NC(=O)NCc2ccc(C)cc2)c1 -7.33%
Cc1ccccc1CNC(=O)Cn1c(=O)c2cccn2c2cccnc21 -13.4%
CC(=O)c1ccc(NC(=O)C2CCN(S(=O)(=O)c3ccc4[nH]c5c(c4c3)CCCCC5)CC2)cc1 -12%
CCCOc1ccc(C2c3c(oc4ccccc4c3=O)C(=O)N2c2nnc(C(C)C)s2)cc1 (stereo not given) -3.92%
